Assay results as given in PubChem BioAssay AID488969 (Vanderbilt High Throughput Screening Facility, 2010).
In all, about 110,000 compounds were measured (“z-score”: median about -0.1, highest 2% from about 2 on). This is one part of the list. Non-standard residues stand in square brackets, D forms with d. Residues, ends and D or L forms follow the SMILES beside them. ξ: configuration not given here. *: point of attachment. Piv = CC(C)(C)C(=O)*; ξNva = CCCC(N)C(=O)O

Each compound was assayed against Metabotropic glutamate receptor 8 (Rattus norvegicus) (UniProt P70579) (assay: rat mGluR8 modulators via GIRK flux, primary screen, cell-based, thallium flux, HTS (AID 488969)). Details: HEK293 rat mGluR8, GIRK (G protein-gated inwardly rectifying potassium channel) thallium flux, FluoZin2; at 10 µM; stronger effect = higher value; submaximal glutamate (EC20) added with thallium.
Sequence of UniProt P70579 (P70579 whole entry, looked up): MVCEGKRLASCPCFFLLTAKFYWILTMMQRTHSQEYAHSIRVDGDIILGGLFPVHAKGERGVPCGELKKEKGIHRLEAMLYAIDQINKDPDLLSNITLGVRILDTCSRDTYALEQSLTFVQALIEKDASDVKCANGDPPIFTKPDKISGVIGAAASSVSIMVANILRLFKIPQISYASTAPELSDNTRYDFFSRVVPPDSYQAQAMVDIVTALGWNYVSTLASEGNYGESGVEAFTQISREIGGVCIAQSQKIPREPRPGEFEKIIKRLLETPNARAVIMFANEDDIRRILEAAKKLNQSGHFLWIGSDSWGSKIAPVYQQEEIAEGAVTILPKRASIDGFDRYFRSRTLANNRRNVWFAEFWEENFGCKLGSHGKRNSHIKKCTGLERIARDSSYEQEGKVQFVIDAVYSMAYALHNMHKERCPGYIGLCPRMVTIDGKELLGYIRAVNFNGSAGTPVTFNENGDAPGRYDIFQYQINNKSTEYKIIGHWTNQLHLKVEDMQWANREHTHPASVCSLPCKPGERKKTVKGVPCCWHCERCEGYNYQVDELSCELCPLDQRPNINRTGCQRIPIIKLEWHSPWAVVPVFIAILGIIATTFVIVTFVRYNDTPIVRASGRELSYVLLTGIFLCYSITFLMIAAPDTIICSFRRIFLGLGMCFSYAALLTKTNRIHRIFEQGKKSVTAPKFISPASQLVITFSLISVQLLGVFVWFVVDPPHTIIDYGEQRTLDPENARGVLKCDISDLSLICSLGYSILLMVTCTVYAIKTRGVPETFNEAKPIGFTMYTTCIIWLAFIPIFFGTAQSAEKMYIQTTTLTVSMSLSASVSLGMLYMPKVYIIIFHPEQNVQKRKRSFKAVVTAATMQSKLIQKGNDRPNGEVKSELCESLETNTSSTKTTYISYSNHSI

Structure (SMILES) | z-score
O=C(Nc1ccsc1C(=O)NC1CCCCC1)c1ccccc1 | -0.315
COc1ccc(C(=O)N(CN2CCCC2=O)c2ccccc2OC)cc1OC | 0.587
CC(C)Cn1c(Cc2ccccc2)n[nH]c1=S | -0.0325
Cc1ccc(OC(=O)c2sc(Cl)nc2C)cc1C | -0.251
CCOc1ccc(N=CC2=C(O)CC(C)(C)CC2=O)cc1 | 0.649
CCOC(=O)C(Sc1nn(C)c(=S)s1)C(C)=O (configuration not stated) | -0.128
Cc1cc(C)c(C)c(S(=O)(=O)N2CCC(C(=O)OCC(=O)N3c4ccccc4NC(=O)C3(C)C)CC2)c1C | 0.597
CN1CCN(c2ccccc2NC(=O)c2ccc(-c3cccc([N+](=O)[O-])c3)o2)CC1 | -0.00188
Cc1cc(C)nc(NS(=O)(=O)c2ccc(N/C=C/C(=O)c3ccc(Cl)cc3)cc2)n1 | -0.43
COc1ccc(CN(C)CC(=O)Nc2cc3oc4ccccc4c3cc2OC)c(OC)c1 | -0.191
CC1CCN(c2ccc(/C=C(\C#N)c3nn(-c4ccccc4)c(N)c3C#N)cc2[N+](=O)[O-])CC1 | -0.154
CC1=CC=CC2=NC(=O)CC(C)(C(=O)N(CC(=O)NC(C)C)C3CCCC3)N12 (configuration not stated) | -0.311
C=CCn1c(C(C)NC(=O)CCC)nc2ccccc21 (configuration not stated) | 1.06
C/C(CC(=O)Nc1cc(C)ccn1)=N\NC(=O)COc1cccc(C)c1 | 0.0652
O=C(/C=C/c1ccc(Cl)cc1Cl)NCc1ccncc1 | 0.902
COC(=O)c1cc2sccc2n1Cc1ccc(C)cc1 | 0.14
Cc1ccc(OCc2ccc(C(=O)N3CCOCC3)cc2)cc1C | 0.253
CCOC(=O)C(C)n1cnc2c(nnn2-c2cccc(Cl)c2)c1=O (configuration not stated) | -0.127
COc1ccc(N2CC(O)=C(c3n(C)c4ccccc4[n+]3C)C2=N)cc1 | -0.118
O=C(NCc1ccc(F)cc1)C1CCC(=O)N1CCc1ccccc1 (configuration not stated) | -0.33
CSc1nsc(SC)c1NC(=O)OCCc1ccccn1 | 0.0478
CCc1ccc(S(=O)(=O)NCc2csc(C)n2)s1 | 0.347
COCCN(C(=S)Nc1cccc(C)c1)C(C)c1cccs1 (configuration not stated) | -0.946
Cn1c(=O)c2c(SCC(=O)N3CCOCC3)nc(C3CC3)nc2n(C)c1=O | -0.312

Structure (SMILES) | z-score
CCc1ccc(C2=NN(S(C)(=O)=O)C(c3cccs3)C2)cc1 (configuration not stated) | -0.336
COc1cccc2sc(NC(=O)c3ccc(S(=O)(=O)N4CCOCC4)cc3)nc12 | 0.875
CC(=O)c1cccc(N(CC(=O)O)S(C)(=O)=O)c1 | 0.52
O=C(CSc1ccc2nnc(-c3cccnc3)n2n1)NCc1ccc2c(c1)OCO2 | 0.75
CC(C)C(=O)NC(Nc1ccccc1F)C(Cl)(Cl)Cl (configuration not stated) | -0.185
CC(OC(=O)CCCc1nc2ccccc2s1)C(N)=O (configuration not stated) | -0.282
COc1ccc(-c2csc(Nc3cccnc3)n2)cc1 | -0.607
Nc1c2c(=O)oc(-c3ccccc3)cc2nn1-c1ccccc1 | -0.396
Cc1nn(-c2ccccc2)c2c1C1(C(=O)Nc3ccccc31)N1C(=N2)Sc2ccccc21 (configuration not stated) | -0.00358
O=C(CCSCc1ccc(Cl)cc1)NCCc1ccccc1 | -0.0466
O=C(CSc1nnc(-c2cccs2)o1)N1CCCc2ccccc21 | -0.194
COC(=O)C(O)(CC(=O)Nc1cc(OC)c(OC)c(OC)c1)C(F)(F)F (configuration not stated) | 0.249
COc1ccc(CC(=O)OCC(=O)NC(=O)NC2CCCCC2)cc1 | -0.846
Cc1noc(C)c1C(=O)Nc1ccc(F)cc1F | -0.305
COc1ccc(N2C(=O)CC(N3CCC(C(N)=O)CC3)C2=O)cc1 (configuration not stated) | -0.355
O=C(c1ccco1)N1CCN(C(=O)C2c3ccccc3Oc3ccccc32)CC1 | 0.889
COc1ccc(S(=O)(=O)/N=C2/NC(=O)/C(=C/c3ccco3)S2)cc1 | -0.0953
CC(C)c1onc(C(=O)N2CCCCC2C)c1[N+](=O)[O-] (configuration not stated) | -0.0403
c1ccc(C2=Nc3ccccc3SC2c2nc3ccccc3[nH]2)cc1 (configuration not stated) | -0.337
COC(=O)c1ccc(OCC(=O)c2cccc(OC)c2)cc1 | -0.425
Cc1ccc(CN2CCN(c3ccccn3)CC2)s1 | 0.0885
COC(=O)c1sccc1NC(=O)CCC1CCCCC1 | 0.077
Cc1oc(C)c(C(=O)Nc2ccc(CC(=O)O)cc2)c1C(=O)Nc1ccc(CC(=O)O)cc1 | -0.00891
CCc1ccc(C(=O)CCC2CCCCC2=O)cc1 (configuration not stated) | 0.096

Structure (SMILES) | z-score
O=C(O)c1cccc(N/N=C/c2sc(N3CCOCC3)nc2-c2ccccc2)c1 | -0.235
O=C(CCN1CCN(c2ccc(F)cc2)CC1)Nc1ccc(F)cc1 | -0.166
Cc1ccc(-c2nn(C)c(=O)c3ccccc23)cc1CNC(=O)CSc1nc2ccccc2o1 | -0.317
CCOC(=O)c1c(-c2ccccc2)csc1NC(=O)C1CCCO1 (configuration not stated) | -0.568
Cc1cc2occ(CC(=O)NCc3cccs3)c2cc1C(C)C | -0.343
Cc1cc(Br)ccc1NC(=O)CNC(=O)CSc1n[nH]c(N)n1 | 1.01
O=C(Nc1ccc(Cl)cc1C(=O)Nc1ccncc1)c1ccco1 | -0.0985
COc1cc(OC)nc(NC(=O)CCl)n1 | 0.431
Cc1c(C(=O)O)oc2ccc(S(=O)(=O)N3CCCCC3C(=O)O)cc12 (configuration not stated) | -0.577
CC(O)c1nc2ccccc2n1CCOc1ccccc1 (configuration not stated) | -0.136
O=C(NNC(=S)Nc1ccc(Br)cc1Cl)c1ccco1 | 0.791
N#CC(c1ccccc1)(c1ncc(C(F)(F)F)cc1Cl)N1CCOCC1 (configuration not stated) | -0.239
Cc1ccc(C(=O)CCNc2ccc(Br)cc2)o1 | 0.112
COc1ccc(-c2nnc(SCC(=O)N3CCOCC3)n2C)cc1OC | -0.0175
Cc1ccc(CNC(=O)CCNC(=O)Cn2ccc3ccccc3c2=O)o1 | 0.101
CCCC(NC(=O)CNC(=O)C(C)(C)C)C(=O)O (stereo not drawn) (Piv-Gly-[ξNva]-OH) | -0.0706
CC(=O)NS(=O)(=O)c1ccc(NC(=O)c2cc(-c3ccc(C)c(C)c3)nc3ccccc23)cc1 | 0.117
O=C(O)c1ccccc1C(=O)NNc1ccc(Cl)cc1 | -0.0989
COc1ccc(-c2nc(CSCC(=O)NCCC3=CCCCC3)c(C)o2)cc1OC | -0.246
Cc1ccc(NC(C(N)=O)c2c(C)[nH]c(=O)[nH]c2=O)cc1 (configuration not stated) | 0.0671
CC(=O)C1=C(C)NC(SCSc2ccccc2)=C(C#N)C1c1cccnc1 (configuration not stated) | -0.0373
CCN(CCNC(=O)CCCn1nc(C)n2c(cc3sccc32)c1=O)c1ccccc1 | -0.512
CCCCNCc1cc(OC)c(OCC(N)=O)cc1Br | -0.0477
Cc1nn(Cc2ccccc2)c(C)c1NC(=O)c1cc(-c2ccco2)on1 | 0.0399
